Data on 53 compounds can be found in PubChem BioAssay AID1346428 (National Center for Advancing Translational Sciences (NCATS), 2018).

Screen size: about 48,000 compounds; about 1,200 (2.5%) were called active. Roughly 2% stayed inconclusive and do not appear here.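 How the source made its calls: active means activation of at least 60% and not above a set upper limit (about 1 call in 100 departs from these limits); inconclusive means activation of 40% to 60%, or above that upper limit; inactive means activation under 40%.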 The list shows a part of the results.

This assay deals with Probable G-protein coupled receptor 32 (Homo sapiens) (UniProt O75388). Put plainly: qHTS for Agonists of Human Resolvin D1 Receptor DRV1. The following applies: CHO-K1 GPR32 beta-arrestin PathHunter luminescence, 90 min; at 76.9 µM; stronger effect = higher value; zero percent set by DMSO-only wells. The procedure, abridged: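 Using DMSO wells as EC0, agonist-induced signal was taken as chemiluminescence from beta-Gal reconstituted upon beta-arrestin recruitment to GPR32 in CHO-K1 cells after 90 min compound treatment.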
UniProt O75388, sequence (O75388 whole entry, looked up): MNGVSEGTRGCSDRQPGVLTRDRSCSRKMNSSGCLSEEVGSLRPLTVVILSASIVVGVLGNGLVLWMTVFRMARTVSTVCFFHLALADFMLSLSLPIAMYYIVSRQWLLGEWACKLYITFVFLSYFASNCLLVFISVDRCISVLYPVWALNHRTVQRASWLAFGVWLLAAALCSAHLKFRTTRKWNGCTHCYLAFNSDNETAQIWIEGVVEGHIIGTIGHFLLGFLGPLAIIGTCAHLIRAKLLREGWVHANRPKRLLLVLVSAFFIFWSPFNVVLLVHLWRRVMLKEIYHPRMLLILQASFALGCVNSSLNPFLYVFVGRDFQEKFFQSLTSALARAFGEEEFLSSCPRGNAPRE
With `CCN(CC)c1ccc(C(=C2C=CC(=[N+](CC)CC)C=C2)c2cc(S(=O)(=O)O)ccc2S(=O)(=O)[O-])cc1`, the activation was inactive: -77.8%.

For the compound `CCC1CCCCN1C(=O)c1ccc2c(c1)N(Cc1cccc(Cl)c1)C(=O)c1ccccc1S2(=O)=O` (stereo not drawn), the activation was inactive: -18.5%.

`COc1ccc2c(C)c(CCC(=O)NCCc3ccccc3OC)c(=O)oc2c1`: the activation is inactive: 7.22%.

As to `CCc1ccccc1NS(=O)(=O)c1ccc(OC)c2ncccc12`, the activation was inactive: 13.9%.

On to `COc1ccc(NCc2cc3cc4c(cc3n(CC(=O)Nc3ccc(F)cc3F)c2=O)OCO4)cc1`, for which the activation was inactive: -43.8%.

Consider `CC(C)C[C@H](NC(=O)C1OC1C(=O)O)C(=O)NCCCCN=C(N)N` (stereo partly drawn), for which the activation is inactive: 1.27%.

`COC(=O)CCSc1nc2sc3c(c2c(=O)n1Cc1ccccc1)CCC(C(C)(C)C)C3` (stereo not drawn): the activation was inactive: 26.3%.

For the compound `CCOC(=O)c1cnc2c(Cl)cccc2c1NCCN1CCOCC1`, the activation was inactive: -1.92%.

For the compound `COc1cc(C(=O)Nc2cc3c(cc2C)n(C)c(=O)c(=O)n3C)cc(OC)c1OC`, the activation is inactive: 8.33%.

Regarding `COc1ccccc1-c1noc(-c2ccc(N3CCC(C)CC3)c([N+](=O)[O-])c2)n1`, the activation was inactive: -27.9%.

Consider `Cc1ccc(NC(=O)c2sc3nc(-c4cc5ccccc5oc4=O)[nH]c(=O)c3c2C)c(C)c1`, for which the activation was inactive: 0.651%.

For the compound `CCC(=O)N1CCc2cc(S(=O)(=O)NC(Cc3ccccc3)C(=O)Nc3ccc(C)cc3)ccc21` (stereo not drawn), the activation was inactive: -3.08%.

In the case of `CCN1C(=O)c2ccccc2Sc2ccc(NC(C)=O)cc21`, the activation was inactive: -10.3%.

On to `COc1cc(C(=O)Nc2cc(C)ccc2OCc2cc(=O)n3c(C)csc3n2)cc(OC)c1OC`, for which the activation was inactive: -11.4%.

Take `CCOc1ccc(-c2cc(OC(=O)c3ccc(F)cc3)c3c(C)oc(C)c3c(=O)c2)cc1`: the activation was inactive: -17.3%.

For the compound `CCOc1ccc(-n2c(SCc3ccc(C(=O)OC)o3)nc3c([nH]c4ccccc43)c2=O)cc1`, the activation was inactive: -2.06%.

`CCCc1cc(=O)[nH]c(Nc2cccc(Cl)c2Cl)n1`: the activation was active: 87.2%.

Turning to `COc1ccc(CCNC(=O)c2cc3c(-c4ccccc4F)nn(C)c3s2)c(OC)c1`, the activation is inactive: 8.72%.

Take `CCOC(=O)C1CCCN(S(=O)(=O)c2ccc3c(c2)CCCN3C(C)=O)C1` (stereo not drawn): the activation was inactive: 3.51%.

Take `COc1ccc(NC(=O)c2cc3c(s2)-c2c(C)cccc2OC3)c(OC)c1`: the activation is inactive: -24.5%.

As for `O=C(Nc1ccc(Br)cc1F)c1cc(S(=O)(=O)NCc2ccc(F)cc2)ccc1F`, the activation was inactive: 31.3%.

As for `C=C(C)Cn1c(=O)c2c(nc3n2CCN3c2ccc(CC)cc2)n(C)c1=O`, the activation was inactive: -1.52%.

`CCCCNc1nc(Oc2ccc(=O)[nH]n2)nc(N(C)C)n1`: the activation was inactive: 11.8%.

Consider `CCOC(=O)c1cccc(NC(=O)c2cc3c(=O)n(Cc4ccccc4)ccc3nc2C)c1`, for which the activation was inactive: -40.6%.

Turning to `Fc1ccc(-n2cc(-c3ccccc3)c3c(NC4CCCCC4)ncnc32)cc1`, the activation was inactive: -32.4%.

Turning to `CCc1nn(CC(=O)NCCCN(CC)CC)c(=O)c2cc3sc(C)cc3n12`, the activation was inactive: -25.4%.

Take `CSc1ncc(C(=O)Nc2ccccc2C(=O)c2ccccc2)c(C(F)(F)F)n1`: the activation was inactive: -26.4%.

Consider `Cc1cc(C)c(NC(=O)CSc2ccnc(=O)[nH]2)c(C)c1`, for which the activation was inactive: 37.4%.

`COc1cc(NC(=O)CCn2c(-c3ccccc3)cc(C(C)=O)c2C)cc(OC)c1`: the activation is inactive: -31.5%.

Consider `Cc1cccc(CNC(=O)c2oc3c(c2C)-c2nn(Cc4ccccc4Cl)cc2CC3)c1`, for which the activation is inactive: -22.7%.

For `Cc1c(Cl)cccc1NC(=O)CSc1ncnc2c1sc1ccccc12`, the activation is inactive: -7.52%.

Take `CCc1ccc(C2CC(=O)c3c([nH]c(C(=O)OCC4CCCCC4)c3C)C2)cc1` (stereo not drawn): the activation was inactive: -9.72%.

With `NS(=O)(=O)c1ccc(CCNC(=O)C2COc3ccccc3C2)cc1` (stereo not drawn), the activation was inactive: -12.7%.

Regarding `Cc1cc(OCC(=O)Nc2ccc(-c3nc4cc(Cl)ccc4o3)cc2)cc(C)c1Cl`, the activation is inactive: -6.59%.

In the case of `Cc1ccc(Cn2c(=O)c3cccnc3n(CC(=O)Nc3cccc(C(F)(F)F)c3)c2=O)cc1`, the activation was inactive: -8.49%.

With `O=C(COc1ccccc1)NCc1ccc2c(c1)CCN2C(=O)c1ccc(F)cc1`, the activation was inactive: -31.7%.

With `CCc1cccc(NC(=O)Nc2ccc3c(c2)N(C)C(=O)c2ccccc2S3)c1`, the activation was inactive: 4.77%.

For the compound `CCOc1ccc(NC(=O)C(=O)NCCc2csc(-c3ccc(F)cc3)n2)cc1`, the activation is inactive: -3.94%.

For the compound `Cn1cc(S(=O)(=O)N2CCCCCC2)cc1C(=O)N1CCN(c2ccc(F)cc2)CC1`, the activation was inactive: 26.2%.

On to `CCC(=O)N1CCc2cc(Br)cc(S(=O)(=O)CCC(=O)NCCc3ccc(OC)c(OC)c3)c21`, for which the activation is inactive: -10.3%.

With `CCOc1ccc(/C=C/c2nc(C#N)c(N3CCN(c4ccc(OC)cc4)CC3)o2)cc1`, the activation is inactive: -13.9%.

Consider `COc1ccc(NS(=O)(=O)c2cc3[nH]c(=O)c(=O)[nH]c3cc2C)cc1Cl`, for which the activation was inactive: -2.57%.

Turning to `Oc1ccc(Cn2cc[nH]c2=S)cc1`, the activation was inactive: 12.2%.

In the case of `CC(C)OCCCn1c(SCc2ccccc2C#N)nc2c(sc3ccccc32)c1=O`, the activation was inactive: 49.4%.

`Cc1ccc(NC(=O)Cc2c(C(=O)O)c(C)cn2C)cc1Cl`: the activation is inactive: -2.15%.

`COc1cc(OC)c(NC(=O)CN2C(=O)CCn3nc(-c4cccn4C)cc32)cc1Cl`: the activation is inactive: 22%.

`CCN(CC)CCOc1ccc2c(c1)C(=O)c1cc(OCCN(CC)CC)ccc1-2`: the activation is inactive: 25.1%.

`CN(C(=O)C1CCCN(c2ncnc3c2nc2n3CCCCC2)C1)c1ccccc1F` (stereo not drawn): the activation is inactive: 15.7%.

With `CCN(CC)CC(C)CNC(=O)CN1C(=O)CSc2ccc(S(=O)(=O)N3CCOCC3)cc21` (stereo not drawn), the activation was inactive: -10.8%.

As for `Cc1cc(F)ccc1NC(=O)CCS(=O)(=O)c1ccc2c(c1)NC(=O)CO2`, the activation is inactive: 11.6%.

Turning to `O=C(Nc1ccc(Cl)cc1)C1CCCN(S(=O)(=O)c2ccc3[nH]c(=O)ccc3c2)C1` (stereo not drawn), the activation is inactive: 11.4%.

As to `Cc1ccc(Oc2c(C(F)(F)F)oc3c(CN4CCCCC4)c(O)ccc3c2=O)cc1`, the activation was inactive: -34.2%.

Regarding `CCOc1cccc2cc(-c3nc(-c4ccccc4C)no3)c(=O)oc12`, the activation was inactive: -8.82%.
